Assay results from the supplement of paper PMC9151546.
Repeats are few or missing, and single values can be far off.

Key:
CHO-K1 [1] = experiment: relative survival (nuclei to bead ratio vs DMSO control) (% of vehicle control); higher = more surviving cells
Experimental: (§1)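 Flow-cytometric in vitro micronucleus assay (Litron MicroFlow) in CHO-K1 cells in 96-well plates, 19 concentrations (4.5-200 µM, n=1 per concentration). Without S9, cells were exposed for 24 h and sampled at 48 h. With Aroclor 1254-induced rat liver S9, cells were exposed for 3-4 h and sampled at 27-28 h. Read-outs are %MN and %hypodiploid nuclei relative to nucleated events, and relative survival as the nuclei-to-bead ratio versus the 1% DMSO vehicle control (x100).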

CHO-K1 [2] = experiment: micronucleus frequency (% of nucleated events); higher = more micronuclei (genotoxic)
CHO-K1 [3] = experiment: hypodiploid nuclei frequency (% of nucleated events); higher = more hypodiploid events (aneugenic)
Experimental: as §1
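For hypodiploid nuclei frequency (% of nucleated events) in this document: hypodiploid nuclei gated on a flow cytometer with 488 nm excitation after SYTOX Green staining, cultures at 37 °C, positive controls vinblastine without S9 and cyclophosphamide with S9.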
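For micronucleus frequency (% of nucleated events) in this document: cells lysed with nuclei stained by SYTOX Green, then micronucleus-gated events counted against nucleated events by flow cytometry with 488 nm excitation.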
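For relative survival (nuclei to bead ratio vs DMSO control) in this document: Lysed-cell nuclei stained with SYTOX Green and counted against counting beads by flow cytometry at 488 nm excitation, with vinblastine (no S9) and cyclophosphamide (plus S9) as positive controls.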

CN(C)C(=O)Nc1ccc(Cl)cc1 [Monuron]
Conditions | hypodiploid nuclei frequency, CHO-K1 [3] [%] | micronucleus frequency, CHO-K1 [2] [%] | relative survival, CHO-K1 [1]
concentration: 4.5 (µM), S9 metabolic activation: with S9, exposure time: 3-4 hours | 0.22 | 2.52 | 80.8
concentration: 4.5 (µM), S9 metabolic activation: without S9, exposure time: 24 hours | 0.78 | 1.28 | 100
concentration: 5.63 (µM), S9 metabolic activation: with S9, exposure time: 3-4 hours | 0.36 | 1.72 | 93.6
concentration: 5.63 (µM), S9 metabolic activation: without S9, exposure time: 24 hours | 0.64 | 1.56 | 108
concentration: 7.04 (µM), S9 metabolic activation: with S9, exposure time: 3-4 hours | 0.28 | 1.5 | 88.5
concentration: 7.04 (µM), S9 metabolic activation: without S9, exposure time: 24 hours | 0.46 | 1.76 | 108
concentration: 8.8 (µM), S9 metabolic activation: with S9, exposure time: 3-4 hours | 0.12 | 1.64 | 66.3
concentration: 8.8 (µM), S9 metabolic activation: without S9, exposure time: 24 hours | 0.8 | 2.28 | 101
concentration: 11 (µM), S9 metabolic activation: with S9, exposure time: 3-4 hours | 0.22 | 1.58 | 79.1
concentration: 11 (µM), S9 metabolic activation: without S9, exposure time: 24 hours | 0.66 | 2.32 | 104
concentration: 13.7 (µM), S9 metabolic activation: with S9, exposure time: 3-4 hours | 0.24 | 1.34 | 74.2
concentration: 13.7 (µM), S9 metabolic activation: without S9, exposure time: 24 hours | 0.64 | 1.68 | 97
concentration: 17.2 (µM), S9 metabolic activation: with S9, exposure time: 3-4 hours | 0.18 | 1.2 | 89.2
concentration: 17.2 (µM), S9 metabolic activation: without S9, exposure time: 24 hours | 0.72 | 2.22 | 113
concentration: 21.5 (µM), S9 metabolic activation: with S9, exposure time: 3-4 hours | 0.26 | 1.3 | 83.2
concentration: 21.5 (µM), S9 metabolic activation: without S9, exposure time: 24 hours | 0.7 | 2.62 | 101
concentration: 26.8 (µM), S9 metabolic activation: with S9, exposure time: 3-4 hours | 0.14 | 1.66 | 71.1
concentration: 26.8 (µM), S9 metabolic activation: without S9, exposure time: 24 hours | 0.8 | 2.14 | 99.1
concentration: 33.6 (µM), S9 metabolic activation: with S9, exposure time: 3-4 hours | 0.34 | 1.84 | 73.9
concentration: 33.6 (µM), S9 metabolic activation: without S9, exposure time: 24 hours | 0.82 | 2.52 | 97.3
concentration: 41.9 (µM), S9 metabolic activation: with S9, exposure time: 3-4 hours | 0.24 | 1.66 | 66.7
concentration: 41.9 (µM), S9 metabolic activation: without S9, exposure time: 24 hours | 0.88 | 2.5 | 84.6
concentration: 52.4 (µM), S9 metabolic activation: with S9, exposure time: 3-4 hours | 0.18 | 1.32 | 64.8
concentration: 52.4 (µM), S9 metabolic activation: without S9, exposure time: 24 hours | 1.22 | 3.14 | 81.1
concentration: 65.5 (µM), S9 metabolic activation: with S9, exposure time: 3-4 hours | 0.2 | 1.24 | 75.4
concentration: 65.5 (µM), S9 metabolic activation: without S9, exposure time: 24 hours | 1.04 | 2.52 | 88.5
concentration: 81.9 (µM), S9 metabolic activation: with S9, exposure time: 3-4 hours | 0.32 | 1.36 | 71.8
concentration: 81.9 (µM), S9 metabolic activation: without S9, exposure time: 24 hours | 0.72 | 2.42 | 81.8
concentration: 102 (µM), S9 metabolic activation: with S9, exposure time: 3-4 hours | 0.26 | 1.2 | 76.7
concentration: 102 (µM), S9 metabolic activation: without S9, exposure time: 24 hours | 1.18 | 2.74 | 94.9
concentration: 128 (µM), S9 metabolic activation: with S9, exposure time: 3-4 hours | 0.17 | 1.45 | 49.3
concentration: 128 (µM), S9 metabolic activation: without S9, exposure time: 24 hours | 1.46 | 3.78 | 63.8
concentration: 160 (µM), S9 metabolic activation: with S9, exposure time: 3-4 hours | 0.12 | 1.48 | 55.6
concentration: 160 (µM), S9 metabolic activation: without S9, exposure time: 24 hours | 1.98 | 3.26 | 78.1
concentration: 200 (µM), S9 metabolic activation: with S9, exposure time: 3-4 hours | 0.26 | 1.89 | 56.1
concentration: 200 (µM), S9 metabolic activation: without S9, exposure time: 24 hours | 2.56 | 2.94 | 72.8
